# Experimental data published in PubChem BioAssay AID686979 (National Center for Advancing Translational Sciences (NCATS), 2013).
# Screen size: about 420,000 compounds; about 50,000 (12%) were called active. Inconclusive means that the source gave no clear call. Such entries were picked first, then a sample of the others. The call rests on the fitted dose curve; in most records, active means well fitted inhibition curve with a large enough effect; inconclusive means small, poorly fitted or top-dose-only effect; inactive means flat fitted curve, though single readings scatter. No potency is given beside an inconclusive call; the fits are too rough.
# Assay: qHTS for Inhibitors of human tyrosyl-DNA phosphodiesterase 1 (TDP1): qHTS in cells in presence of CPT; further: nearly all actives have a fitted effect of over 55% in size
# Conditions: chicken DT40 Tdp1-/-;hTDP1 cells + 20 nM CPT, ATP luminescence, 48 h; activity change, negative = growth inhibition: at 46.2 µM (top of the series) unless noted
# In short: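 Cell growth measured by CellTiter-Glo luminescence after a minimum 48 h, 37 C compound exposure with 20 nM CPT in Tdp1-knockout DT40 cells stably expressing hTDP1, seeded 400/well; qHTS titration format.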
# On the % scale 0 is the no-effect control and ±100 the full control effect; potency means the concentration at half of the fitted maximal effect; tags describe the fitted curve by direction and shape.
SMILES,Potency,"activity change, negative = growth inhibition"
CCCCCOc1ccc2oc(=O)c3c(c2c1)CCCN3C(=O)CN1CCCC(C(=O)OCC)C1 (stereo not drawn),"inconclusive [inhibitor, single point]",
Cc1cc(C)cc(NC(=O)Cn2nnc(C(=O)NCc3ccco3)c2N)c1,"inconclusive [inhibitor, single point]",
Cc1ncn2cc(-c3ccc(Cl)cc3Cl)[nH]c(=O)c12,"inconclusive [inhibitor, single point]",
COC(=O)Cn1cnc2sc3c(c2c1=O)CCCC3,,inactive: 10.6%
CCOc1ccc2nc(NC(=O)CSC3=NCCS3)sc2c1,active: 23.1 µM,
COc1ccc(-c2ccc(-c3nnc(-c4cc(OC)ccc4OC)o3)cc2)cc1,,inactive: -20.6%
CC(C)c1ccc(C(=O)OC2CCOC2=O)cc1 (stereo not drawn),,inactive: -0.715%
Cc1cc(C)nc(/N=C(\N)Nc2ccccc2-c2ccccc2)n1,active: 16.4 µM,
O=C(c1ccc(O)cc1)c1ccc(Cl)cc1,"inconclusive [inhibitor, single point]",
O=C1c2ccccc2C(=O)N1Nc1ccccc1,,inactive: -3.73%
Cc1c(C2(c3cc(C(C)C)c(O)c(Br)c3C)OS(=O)(=O)c3ccccc32)cc(C(C)C)c(O)c1Br,,inactive: -0.964%
CCOC(=O)c1cccc(NC(=O)C2CCN(c3nnc(C)c4c(C)n(-c5ccccc5)nc34)CC2)c1,,inactive: -19%
CC(C)NC(=O)N(C)C[C@H]1OCCCC[C@H](C)Oc2ccc(NC(=O)NC3CCCCC3)cc2C(=O)N([C@H](C)CO)C[C@@H]1C,"inconclusive [inhibitor, single point]",
Cc1ccc(OCCOCCn2ccnc2)c(Br)c1,,inactive: -26.2%
CCCC(CC)Sc1nc2c([nH]1)c(=S)n(C)c(=O)n2C (stereo not drawn),active: 3.66 µM,
O=C(NCC1CCCO1)c1ccc2c(=O)n(-c3ccccc3)c(=S)[nH]c2c1 (stereo not drawn),,inactive: -6%
CCn1c2ccccc2c2cc(/C=N/n3cn[nH]c3=S)ccc21,"inconclusive [inhibitor, single point]",
CC1CC(C)CN(S(=O)(=O)c2ccc(NC(=O)CN3CCCCCC3)cc2)C1 (stereo not drawn),active: 16.4 µM,
CC12CCC(=O)N1C(C(=O)Nc1cc(Cl)ccc1N1CCOCC1)CS2 (stereo not drawn),"inconclusive [inhibitor, single point]",
N#C/C(=C\c1cccc(OCC(=O)O)c1)c1nc2ccccc2[nH]1,,inactive: 3.54%
CN1C2C=C3C(C#N)=C(N)C(C#N)(C#N)[C@H](c4c(F)cccc4F)[C@H]3C1CC2 (stereo partly drawn),active: 7.31 µM,
COc1ccc(NCc2cccn2-c2nnc(N3CCOCC3)s2)c(OC)c1,,inactive: -26.3%
Cc1ccc(C(=O)Nc2ccccc2N2CCCCC2)o1,active: 25.9 µM,
CCCCC(=O)N(C)c1c(CC)nc2c(OCc3ccc(S(C)(=O)=O)cc3)cccn12,"inconclusive [inhibitor, partial curve, poor fit]",

SMILES,Potency,"activity change, negative = growth inhibition"
O=C(Cn1c(SCc2cccc(F)c2)nc2ccncc21)Nc1ccc(Cl)cc1F,"inconclusive [inhibitor, single point]",
Cc1ccc(-c2[nH]c3ccccc3c2C(C[N+](=O)[O-])c2ccco2)cc1 (stereo not drawn),"inconclusive [inhibitor, single point]",
COc1ccc(N2CCN(S(=O)(=O)CCNC(=O)Cc3ccc(-c4ccccc4)cc3)CC2)cc1,"inconclusive [inhibitor, partial curve]",
CCN=C1S/C(=C\c2ccc(OCC)c(OC)c2)C(=O)N1CC,"inconclusive [inhibitor, single point]",
Cc1cc(NC(=O)C2CCCCC2C(=O)O)ccc1NC(=O)c1ccccc1 (stereo not drawn),,inactive: 2.78%
Cn1nnc(NC(=S)NC(=O)c2cccs2)n1,"inconclusive [inhibitor, partial curve]",
CCCc1oc2ccc(NS(=O)(=O)c3ccc(OC)cc3)cc2c1C(=O)OCC,active: 1.84 µM,
Cc1ccccc1N(CC(=O)NCc1ccco1)C(=O)CNS(=O)(=O)c1ccc(F)cc1,,inactive: 7.43%
Cc1cn2c(=O)cc(COc3cccc(NC(=O)c4cccc(F)c4)c3)nc2s1,"inconclusive [inhibitor, partial curve]",
O=C1c2ccccc2C(Nc2ccc3c(c2)OCCO3)N1c1ccc(Cl)cn1 (stereo not drawn),"inconclusive [inhibitor, single point]",
Cn1cc(/C=N/n2cnc3sc4c(c3c2=O)CCCC4)c2ccccc21,active: 13 µM,
C=CCN(CC=C)CC(O)CN(c1cc([N+](=O)[O-])ccc1OC)S(=O)(=O)c1ccccc1 (stereo not drawn),,inactive: -11.8%
Nc1nc(N=Nc2ccc(O)cc2)cc(=O)[nH]1,,inactive: -8.27%
O=C(CCCCCN1C(=O)CCC1=O)Nc1ccc(Cl)c(C(F)(F)F)c1,"inconclusive [inhibitor, single point]",
COc1ccc(C(=O)Nc2ccc3nc(N4CCCCC4)cc(C)c3c2)c(OC)c1,,inactive: -23.5%
CC1CC(NC(=O)c2c(O)nc3sccn3c2=O)CC(C)(C)C1 (stereo not drawn),"inconclusive [inhibitor, single point]",
CCOc1cccc(SCc2noc(C(=O)NCC3CCCO3)c2C(=O)O)c1 (stereo not drawn),,inactive: -2.17%
Cc1ccc(C(NC(=O)N2CCCCC2)=C(Cl)Cl)cc1F,active: 13 µM,
COc1ccc(C2Nc3ccccc3NC3=C2C(=O)CC(C)(C)C3)cc1O (stereo not drawn),"inconclusive [inhibitor, single point]",
CCOC(=O)c1c(NC(C)=O)c2c3c(sc2n1Cc1cccc(Cl)c1)CCCC3,"inconclusive [inhibitor, single point]",
Cc1ccc(C(CC(=O)Nc2ccc(C)cc2C)N2Cc3ccccc3C2=O)cc1 (stereo not drawn),active: 16.4 µM,
C=CCc1c(C)nc2c(OC)cccc2c1Cl,"inconclusive [inhibitor, single point]",
CCCCNC(=S)N/N=C/c1ccc(C)s1,"inconclusive [inhibitor, single point]",
CCOC(=O)C[C@@H]1OC[C@H](C(C)C)N1S(=O)(=O)c1ccc(C)cc1,"inconclusive [inhibitor, partial curve]",
